Sequences with one replicate were seen in a single cluster, so their values are uncertain.
System: ATP
Assay: switch fluorescence ratio, 500 uM ATP over buffer (Cy3 cluster intensity, sum of 5 cycles each) (fold (ratio)); higher = stronger signal-on switching upon ATP binding; sequences stand for … in TCGTCGGCAGCGTCAGATGTGTATAAGAGACAGTTTTTTTTTTTTTTTTTTTTTTTTT…TC
Conditions: aptamer strand: ATP DNA aptamer (quencher-CACCTGGGGGAGTATTGCGGAGGAAGG + anchor), 100 nM annealed; ATP concentration: 500 uM; one replicate
Summary of the method: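 After annealing to 100 nM quencher-labelled ATP aptamer, Cy3-labelled switching-strand clusters on a modified Illumina MiSeq flow-cell were imaged in selection buffer. A second image followed after 15 min with 500 uM ATP at 22 °C, and five such buffer/ATP cycles were done, each separated by NaOH stripping and re-annealing. The fluorescence ratio, averaged per switch-domain sequence, is summed target-cycle over summed buffer-cycle Cy3 intensity per cluster, with clusters outside 100-1000 RFU excluded.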
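Also: ATP exposure 15 min at 22 °C before imaging.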

Sequence	switch fluorescence ratio
AGAGTTTCGG	0.888
ATTCTTACCT	1.19
ACAAAAGCGT	1.04
ATCGCGACGT	1.01
AGGAGAGAAG	1.03
GCGAATGTAG	1
GTATGAGCGA	1.03
GGATGCCTTG	0.978
TTTGACTA	1.01
ATGCCATTCC	1.34
ACTGTGGCAA	0.931
TGGTGCAA	1.13
GATTGTGTC	0.947
CGTGTGGCGC	0.936
GATAACACAC	1.28
CCTAGGTGTG	1.37
TATCGTGTAT	1.02
GGGATCCAGA	0.968
ATGACCTTCT	1.23
TAGCACTTTG	0.99
CGAACATCGG	0.927
TTAAAGAGTC	1.05
TGCCAAGCAG	1.04
GCCACAGGT	1.7
TAGTACTAGT	1.05
AAATTTATAG	1.02

Sequence	switch fluorescence ratio
TCAGCTAAAG	1.01
GAGAAAGGT	0.95
AATTTTGACC	0.995
GGCTGCTTTT	1
TAAGAAAAGC	0.978
GGGCATAGAG	1
GCGCCTATTC	1.12
ACCAGTCTCA	1
TTGATGTTCT	0.962
CAGGGACGTC	1.04
AAAAACATCA	1.01
GTAAAAATCT	1.04
GGATGTTTTA	0.98
AGGCCCTAAC	0.989
TGGCGCTCGG	1
GACAGAAGGT	1.04
TGCAGCTTTT	1.18
CTAACAGCGG	1.02
AATGTTACCA	1.06
AGGAAGCAGG	1.14
AACCGGGGGA	1.05
TCCATGGTAG	1.01
CCCCTAAGCC	1.02
TGTGATCCAA	0.981
CCCGTTTCAC	1.18
CGGGGGTGC	0.989

Sequence	switch fluorescence ratio
CTTGGGGTAT	1.05
TCCTGAGCTC	1.48
GTATGGGAAG	0.984
GCTAGCCG	1.04
AAACGTAGGG	1.03
CCTAATAACC	1.03
CATGGTGCTT	1.03
GGGGAGTTGT	0.98
ATGGAATTTA	1
CACGATTGA	0.998
TCTATAAGGC	1.02
TAGTCTTCGG	1.01
TGGATGCGTC	0.997
TCGCCGCGA	1.06
TCGAACTAGA	0.969
GAAATTACCT	1.48
TACATTATGC	1.07
CTGATTGATA	0.999
GGACGTGATG	0.929
AACGCTCATT	1.01
GTGTAAACGG	0.963
GGGACGTACT	1.53
CTCGCCGCCA	1.03
ATGTCAGTGG	0.945
AGAATGGTAA	1.03
CCAGTCGGAT	1.03

Sequence	switch fluorescence ratio
GCGAACACTT	1.02
ACAGTTACAT	1.15
ATGCACGAGG	1.07
ACATCCAGAC	1.15
GGACCAAGGA	1.04
CTTGTGATAA	1.03
AGTATAGCGT	0.95
TCCACTGAGA	1.04
AAGCTATGCC	0.986
AGGAACTCCA	0.99
TGAGCCAGGG	0.981
CTTGATGTCA	1.04
TGCCTTTAAA	1.02
GTGTGTAGTC	0.999
CTAGATTCCC	1.05
CGCGTCGAAG	1
AGGACTGTTA	1.08
GGAAAATCT	0.98
AATGCTGAAG	1.03
TTAGCACAGC	1.01
TTCAGCGATA	3.42
GGATTGGAGA	0.936
GAAAGATGGG	0.973
ATTAAGGCAT	1.02
TCAGGTGGGC	1.06
CCGAAACAT	1.62

Sequence	switch fluorescence ratio
GATGGTAGAT	0.992
CTATCGGATC	0.992
AGTGACGCA	1.24
AATCCTCCTT	1.07
CGTTCCCGTT	1
CGTATTCCCA	0.967
AAGTTCTTCG	0.984
CACACTGCAG	1.03
AAGCTTTTGA	0.973
AGGCGGTACG	1.03
AAGCTAGACC	1.11
AACTCGCGGT	1.01
TTCACTATGG	0.979
GTATCAAGTG	0.951
ATTGACCTAC	1.43
GAGCTTGTGT	0.998
ATAAATGTTG	1
ATTACAGTCT	1.02
TGCGGAGGTG	1.06
TTCGCCATTA	0.976
CGGGTTAGGT	0.986
GTACGAATGC	1.29
CGGGAGTAGC	0.989
TGTCGAATCA	0.959
ATTAGGTCGA	0.983
TTTTCGTCAC	1.23

Sequence	switch fluorescence ratio
ATGGGTAAAA	1.03
TTTGTGTGAT	0.989
AGCTCCATCA	1.03
CTATGATGAC	0.998
TGAAGAC	1.14
TTTTCGGCAG	1.03
GTGGTCTGCT	1
TTACCATCTA	1.03
TTATACTTT	1.01
TCTACTTGAC	1.33
GTGTTCTGCA	0.988
TTCGGTTCTT	0.955
TTGTCTTGTA	1.04
AAGAGCCTAC	0.983
CCGGAGGTCA	1.29
GGAATCGCCG	0.998
GGGTCTGTGT	0.987
GAATGAGCCG	1.09
ACGCCGGTTG	0.977
TGATGGACGA	0.991
GACATTGCCA	1.01
TCGTTAAACG	1.03
ATCTTTTCAC	1.01
